Experimental data from PMC11251039, “Harnessing cholesterol uptake of malaria parasites for therapeutic applications” (EMBO Molecular Medicine, 2024).
Where “and” joins values, the source holds several entries; their conditions need not be identical. Equal values may be shown once. Further values from the same series stand in other lists.

Assays:
P. berghei liver stages = assay: Plasmodium berghei liver stage growth inhibition assay (luminescence, in Huh7 cells); details: listed as BC5B
[1] = test system: P. falciparum stage V gametocytes; assay: P. falciparum gametocyte viability assay (MitoTracker, flow cytometry), stage V; assay type: cell-based, Plasmodium falciparum; details: 48 h, replicate values, source data Fig. 2D, listed as BC5B
Procedure: (§1) Gametocyte assays commenced seven days (stage III–IV) or ten days (stage V) post-invasion. […]
(§2) Plasmodium falciparum Gametocyte Viability Assays:
(§3) Asexual P. falciparum parasites were induced to form gametocytes as described (21).
(§4) Synchronized trophozoite-stage parasites at 2% parasitaemia were incubated overnight and […]
(§5) haematocrit maintained at 4%. On the subsequent day (designated as day 0) of gametocytogenesis, the culture containing early ring-stage parasites was first purified by sorbitol synchronisation to remove asynchronous trophozoites, and passed through a magnetic field in a sterile MACS® column in a SuperMACSTM II magnet to remove remaining late-stage parasites or later-stage gametocytes (negative selection). The culture medium was supplemented with 50 mM N-acetyl-D-glucosamine to inhibit asexual parasite proliferation, and changed daily. Sorbitol treatment was performed on Day 1, 5, and 6 to further remove asexual parasites. Gametocytes were magnetically enriched (positive selection) in a sterile column with a SuperMACSTM II magnet and eluted in culture media with 50 mM N-acetyl-D-glucosamine. These gametocytes were incubated overnight at 37 °C under microaerophilic conditions, and purity was assessed by examination under a light microscope (400× […]
Gametocyte viability was assessed as described by Ridgway et al. (21) with modifications.
Compounds or solvent controls (DMSO) were serially diluted across 96-well plates in culture media supplemented with 50 mM N-acetyl-D-glucosamine. Culture media without compound was used as a negative control. […]
control to determine background gametocyte fluorescence. Stage III-IV gametocytes (Day 7) or stage V (day 10) gametocytes were concentrated and added to the plate with 200 µL per well. The plate was incubated for 48 hours at 37 °C under humid microaerophilic conditions.
Parasites were then stained with 500 nM MitoTrackerTM Deep Red FM and 5 μg/ml Hoechst […]
cytometer as described above. […]
excluded. Live (positive) and dead (negative) gametocytes were differentiated by […]
(§6) percentage of each was calculated. […]

[2] = test system: P. falciparum stage III–IV gametocytes; assay: P. falciparum gametocyte viability assay (MitoTracker, flow cytometry), stage III-IV; assay type: cell-based, Plasmodium falciparum; details: 12.500000000 uM, 48 h, replicate values, source data Fig. 2C; listed as BC5B, 12.5 µM
Procedure: as §1, §2, §3, §4
as §5, with “Gametocytes were magnetically enriched (positive selection) in a sterile column with a SuperMACSTM II magnet and eluted in culture media with 50 mM N-acetyl-D-glucosamine.” left out
Gametocyte viability was assessed as described by Ridgway et al. (21) with modifications. […]
control to determine background gametocyte fluorescence. […]
as §6

COc1cc(NC(C)CCCNC(=O)CCC(=O)O[C@H]2CC[C@H]3[C@@H]4CC=C5C[C@@H](O)CC[C@]5(C)[C@H]4CC[C@]23C)c2ncccc2c1 (stereo partly drawn) [C-17-PQ]
Figure 3E dose-response value (replicates) (P. berghei liver stages; 0.072656250 uM): 87.85 and 88.9 and 115.1 and 101.8 and 99.93 and 103.1 and 85.09 and 86.8 and 88.91 and 100 and 95.2 and 92.74
Figure 3E dose-response value (replicates) (P. berghei liver stages; 0.145312500 uM): 94.9 and 97.22 and 98.41 and 89.88 and 90.02 and 96.03 and 88.44
Gametocyte stage V viability, percentage of control ([1]; 0.390625000 uM, 0.390625 µM): 98.27% and 93.99% and 80.3% and 101.9% and 99.43% and 75.59% and 105.6% and 96.63% and 91.76%
Gametocyte stage V viability, percentage of control ([1]; 0.781250000 uM, 0.78125 µM): 91.23% and 94.41% and 81.44% and 109.3% and 90.89% and 82.01% and 94.72% and 89.86% and 84.65%
Gametocyte stage V viability, percentage of control ([1]; 1.562500000 uM, 1.5625 µM): 83.44% and 83.53% and 77.68% and 109.8% and 96.7% and 93.65% and 98.11% and 79.64% and 74.46%
Gametocyte stage V viability, percentage of control ([1]; 3.125000000 uM, 3.125 µM): 70.55% and 69.66% and 83.13% and 72.76% and 63.94% and 76.79% and 69.03% and 63.78%
Gametocyte stage V viability, percentage of control ([1]; 6.250000000 uM, 6.25 µM): 59.48% and 61.66% and 60.13% and 51.35% and 42.29% and 31.97% and 59.44% and 48.67% and 56.99%
Gametocyte stage V viability, percentage of control ([1]; 12.500000000 uM, 12.5 µM): 43.62% and 44.16% and 37.04% and 31.28% and 21.36% and 19.08% and 52.74% and 38.49% and 35.02%
Gametocyte stage V viability, percentage of control ([1]; 25.000000000 uM): 25.68% and 21.08% and 15.55% and 13.61% and 9.438% and 7.979% and 4.671% and 11.58% and 10.42%
Gametocyte stage V viability, percentage of control ([1]; 50.000000000 uM): 6.341% and 4.951% and 3.159% and 2.23% and 1.652% and 0.8009% and 0.8089% and 3.502% and 2.333%
Gametocyte stage V viability, percentage of control ([1]; 100.000000000 uM): 0.1792% and 0.9186% and -1.098% and 0.223% and 0.1622% and -0.3852% and 0.8573% and 1.212% and 1.051%
Gametocyte stage III-IV viability, percentage of control [2]: 40.42% and 42.4%
